# Inconclusive results, whose numbers are uncertain, are shown with a selection of clear calls. Where a call stands in place of a potency, no number is given. For some assays here: Potencies of inconclusive entries are doubtful fits and often do not repeat. Calls of active or inactive are those of the source. Unless noted, calls come from the whole dose curve; as a rule, active = well fitted curve in the direction sought with a large enough effect in the repeat runs; inconclusive = weak or mixed curves; inactive = no such curve, though single readings can be large; an effect the other way counts as inactive or inconclusive.
# How the values were obtained:
# [1] = qHTS assay to identify small molecule antagonists of the estrogen related receptor (ERR) signaling pathway from Tox21 library - cell viability counter screen (AID 1224834); note: nearly all actives have a fitted effect of over 30% in size; note: potency is the fitted concentration of half-maximal effect
# How it was run: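 Fluorescence from CellTiter-Fluor gives the viability read-out, taken 30 min after reagent addition. Before that, ERR cells seeded 6 h earlier were incubated with compounds for 17.5 h at 37 C.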
# [2] = qHTS RealTime-Glo MT Cell Viability Assay in HEK293 cells - 32 hour (AID 1224868); note: nearly all actives have a fitted effect of over 50% in size; note: potency is the fitted concentration of half-maximal effect
# How it was run: (§1)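 HEK293 cells were seeded at 600 cells/well together with NanoLuc luciferase and cell-permeant prosubstrate, preincubated 5 h at 37 C/5% CO2, then given compound in DMSO by pintool. Luminescence from viable-cell prosubstrate reduction was read repeatedly over 40 h.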
# [3] = qHTS RealTime-Glo MT Cell Viability Assay in HEK293 cells - 16 hour (AID 1224872); note: nearly all actives have a fitted effect of over 50% in size; note: potency is the fitted concentration of half-maximal effect; for activity change, negative = cytotoxicity: top concentration of the series differs between compounds
# How it was run: as §1
# [4] = qHTS RealTime-Glo MT Cell Viability Assay in HEK293 cells - 24 hour (AID 1224886); note: nearly all actives have a fitted effect of over 50% in size; note: potency is the fitted concentration of half-maximal effect; for activity change, negative = cytotoxicity: top concentration of the series differs between compounds
# How it was run: as §1
# [5] = qHTS RealTime-Glo MT Cell Viability Assay in HEK293 cells - 8 hour (AID 1224887); note: nearly all actives have a fitted effect of over 50% in size; note: potency is the fitted concentration of half-maximal effect; for activity change, negative = cytotoxicity: top concentration of the series differs between compounds
# How it was run: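 Cells were seeded together with NanoLuc luciferase and a prosubstrate that viable cells reduce to a luciferase substrate. After a 5 h incubation at 37 C/5% CO2, compounds were added and luminescence was measured repeatedly during 40 h of treatment.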
# [6] = qHTS assay to identify small molecule antagonists of the progesterone receptor (PR) signaling pathway - cell viability counter screen (AID 1346798); note: nearly all actives have a fitted effect of over 50% in size; note: potency is the fitted concentration of half-maximal effect
# How it was run: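 Following a 4 hr attachment, PR-UAS-bla HEK293T cells in charcoal-stripped FBS medium were exposed to compounds with R5020 for 16 hr; CellTiter-Glo was added and luminescence read after 30 min at room temperature.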
# [7] = qHTS assay to identify small molecule antagonists of the estrogen receptor alpha (ER-alpha) signaling pathway using the BG1 cell line (AID 743080; calls by dose curve;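 note: BG1 cells stimulated with 17beta-estradiol alongside compound; nearly all actives have a fitted effect of over 25% in size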; note: potency is the fitted concentration of half-maximal effect); settings: BG1Luc4E2 ERE-luciferase antagonist mode, luminescence; activity change, negative = inhibition: at 70.3 µM (top of the series) unless noted
# How it was run: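 BG1-Luc-4E2 cells (endogenous full-length ER-alpha, stable 4×ERE-luciferase) were starved 5 days in phenol-red-free medium with 10% charcoal-stripped FBS, plated 24 h, then given compound plus 17beta-estradiol for 21.5 h at 37 C; ONE-Glo luminescence read after 30 min.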
# [8] = qHTS assay to identify small molecule agonists of the farnesoid-X-receptor (FXR) signaling pathway - cell viability counter screen (AID 743218); settings: FXR-bla HEK293T viability, CellTiter-Glo luminescence, 16 h; viability change, negative = cytotoxic: at 62.6 µM (top of the series); note: nearly all actives have a fitted effect of over 45% in size; note: potency is the fitted concentration of half-maximal effect
# How it was run: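 HEK 293T FXR-bla cells; 5 h pre-incubation, 16 h compound exposure at 37 C; LiveBLAzer substrate 2 h RT, then CellTiter-Glo 30 min RT, luminescence.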
# [9] = qHTS assay to identify small molecule antagonists of the peroxisome proliferator-activated receptor gamma (PPARg) signaling pathway - cell viability counter screen (AID 743194); settings: PPARg-bla HEK293H viability, CellTiter-Glo luminescence, 17 h; Potency: co-treated with 50 nM rosiglitazone unless noted; activity change, negative = cytotoxicity: at 62.6 µM (top of the series), co-treated with 50 nM rosiglitazone unless noted; note: potency is the fitted concentration of half-maximal effect; nearly all actives have a fitted effect of over 55% in size
# How it was run: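 Cytotoxicity counter screen in PPARg-bla HEK293H cells, same wells as reporter assay. Compounds plus 50 nM rosiglitazone (final) for 17 h at 37 C, then viability read by CellTiter-Glo luminescence.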
# [10] = Caspase-3/7 induction in HepG2 cells by small molecules, qHTS cell viability counter screen (AID 1346981); note: nearly all actives have a fitted effect of over 30% in size
# How it was run: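 HepG2, WT, 2,000 cells/well; 5 hr pre-incubation 37 C/5% CO2; compound pin-transferred from DMSO; 16 hr exposure; CellTiter-Fluor, 1 hr; fluorescence read.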
# [11] = target: Luciferin 4-monooxygenase (Photinus pyralis) (UniProt P08659); assay: qHTS assay to identify small molecule inhibitors of firefly luciferase (AID 1224835); note: nearly all actives have a fitted effect of over 25% in size; note: potency is the fitted concentration of half-maximal effect
# How it was run: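 Biochemical qHTS: compounds run as interplate titrations against purified firefly enzyme, with D-luciferin and ATP each at its KM concentration. Light output recorded by CCD imaging.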
# [12] = qHTS assay to identify small molecule antagonists of the vitamin D receptor (VDR) signaling pathway - cell viability counter screen (AID 743225); settings: VDR-bla HEK293T viability, CellTiter-Glo luminescence, 16 h; viability change, negative = cytotoxic: at 61 µM (top of the series) unless noted; note: nearly all actives have a fitted effect of over 50% in size; note: potency is the fitted concentration of half-maximal effect
# How it was run: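 Parallel cytotoxicity test: VDR-UAS-bla HEK 293T, 3 nM (final) 1-alpha,25-dihydroxyvitamin D3 with test compound, 16 h, 37C. Endpoint is CellTiter-Glo luminescence in the same wells.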
# [13] = target: Thyrotropin receptor (Homo sapiens) (UniProt P16473); assay: qHTS assay to identify small molecule agonists of the thyroid stimulating hormone receptor (TSHR) signaling pathway (AID 1224843; calls by dose curve; note: nearly all actives have a fitted effect of over 45% in size; note: potency is the fitted concentration of half-maximal effect); settings: TSHR-HEK293 cells, cAMP HTRF, agonist mode, 30 min; activation: at 92.4 µM (top of the series) unless noted
# How it was run: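 TSHR-HEK293 cells in agonist mode, 30 min room-temperature step, then cAMP measured by competitive HTRF (cAMP-d2 with anti-cAMP cryptate) after 1 h at room temperature. Tested at 15 concentrations in triplicate.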
# [14] = target: Estrogen receptor beta (Homo sapiens) (UniProt Q92731); assay: qHTS assay to identify small molecule antagonists of the estrogen receptor beta (ER-beta) signaling pathway (AID 1259378; active = well fitted inhibition curve with a large enough effect in the signal ratio in the repeat runs, not every such curve was filed as active; inconclusive = weak or mixed curves, or effect the other way; inactive = no such curve, though single readings can be large or run the other way; the % refers to the signal ratio; note: potency is the fitted concentration of half-maximal effect); settings: ER-beta-UAS-bla HEK293T, beta-lactamase FRET ratio, 16 h; activity, negative = inhibition: at 92.4 µM (top of the series) unless noted
# How it was run: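 ER-beta-UAS-bla HEK293T cells in 2% charcoal-stripped FBS medium treated with compound plus 1nM final 17-beta-estradiol for 16 hr at 37C. Beta-lactamase reporter read by FRET substrate fluorescence after 2 hours at room temperature.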
# [15] = target: Nuclear receptor subfamily 1 group I member 2 (Homo sapiens) (UniProt O75469); assay: Human pregnane X receptor (PXR) small molecule agonists, qHTS assay (AID 1346982); note: nearly all actives have a fitted effect of over 35% in size; note: potency is the fitted concentration of half-maximal effect
# How it was run: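 Luciferase signal from ONE-Glo (30 min, room temperature) measured activation of hPXR-driven CYP3A4 reporter expression in PXR-Luc HepG2 cells treated with compounds for 24 hr at 37 C.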
# [16] = target: Peroxisome proliferator-activated receptor delta (Homo sapiens) (UniProt Q03181); assay: qHTS assay to identify small molecule antagonists of the peroxisome proliferator-activated receptor delta (PPARd) signaling pathway (AID 743215; active = well fitted inhibition curve with a large enough effect in the signal ratio in the repeat runs, not every such curve was filed as active; inconclusive = weak or mixed curves, or effect the other way; inactive = no such curve, though single readings can be large or run the other way; the % refers to the signal ratio;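 note: cells stimulated with agonist L165041 at 300 nM final during compound exposure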; note: potency is the fitted concentration of half-maximal effect); settings: HEK293H PPARd-UAS-bla, beta-lactamase FRET ratio, antagonist, 17 h; ratio activity, negative = inhibition: at 62 µM (top of the series) unless noted
# How it was run: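 Read-out is beta-lactamase FRET fluorescence, measured 2 h after substrate addition at room temperature. Beforehand, UAS-bla HEK293H cells carrying the PPARd reporter were exposed to compounds with L165041 at 300 nM final for 17 h at 37 C.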
# [17] = qHTS assay to identify small molecule agonists of the sonic hedgehog signaling (Shh) pathway - cell viability counter screen (AID 1259366); note: nearly all actives have a fitted effect of over 50% in size; note: potency is the fitted concentration of half-maximal effect
# How it was run: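 Same-well cytotoxicity read. Gli1-Luc reporter 3T3 cells; compounds 24hr, 37C/5% CO2; CellTiter-Fluor fluorescence.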
# [18] = target: Estrogen receptor (Homo sapiens) (UniProt P03372); assay: qHTS assay to identify small molecule agonists of the estrogen receptor alpha (ER-alpha) signaling pathway using the BG1 cell line (AID 743079); settings: BG1Luc4E2 cells, ERE-luciferase agonist, 22 h; activation: at 70.3 µM (top of the series) unless noted; note: potency is the fitted concentration of half-maximal effect; nearly all actives have a fitted effect of over 20% in size
# [19] = qHTS assay to identify small molecule antagonists of the peroxisome proliferator-activated receptor delta (PPARd) signaling pathway - cell viability counter screen (AID 743213); settings: PPARd-bla HEK293H viability, CellTiter-Glo luminescence, 17 h; viability change, negative = cytotoxic: at 62 µM (top of the series) unless noted; note: nearly all actives have a fitted effect of over 50% in size; note: potency is the fitted concentration of half-maximal effect
# How it was run: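 PPARd-bla HEK293H cells were treated with compounds plus agonist L165041 (300 nM final) for 17 h at 37 C. Viability was then read in the same wells by CellTiter-Glo luminescence after 30 min at room temperature.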
# [20] = qHTS assay to identify small molecule agonists of H2AX (AID 1224845; active = well fitted activation curve with a large enough effect in the signal ratio in the repeat runs, not every such curve was filed as active; inconclusive = weak or mixed curves; the % refers to the signal ratio; note: potency is the fitted concentration of half-maximal effect); settings: CHO-K1 phospho-H2AX Ser139 HTRF, 3 h; activation (H2AX phosphorylation): at 154 µM (top of the series) unless noted
# How it was run: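 Wild-type CHO-K1 cells, plated overnight, exposed 3hr at 37C to 15 concentrations (0.76% DMSO final). Lysed, then HTRF anti-pH2AX (S139) cryptate and anti-H2AX-d2 antibodies, 24 hr room temperature; 665/620 nm emission read.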
# Tags give direction and shape of the fitted curve or compound fluorescence and quenching.
# Chain of UniProt O75469 (O75469 whole entry, looked up): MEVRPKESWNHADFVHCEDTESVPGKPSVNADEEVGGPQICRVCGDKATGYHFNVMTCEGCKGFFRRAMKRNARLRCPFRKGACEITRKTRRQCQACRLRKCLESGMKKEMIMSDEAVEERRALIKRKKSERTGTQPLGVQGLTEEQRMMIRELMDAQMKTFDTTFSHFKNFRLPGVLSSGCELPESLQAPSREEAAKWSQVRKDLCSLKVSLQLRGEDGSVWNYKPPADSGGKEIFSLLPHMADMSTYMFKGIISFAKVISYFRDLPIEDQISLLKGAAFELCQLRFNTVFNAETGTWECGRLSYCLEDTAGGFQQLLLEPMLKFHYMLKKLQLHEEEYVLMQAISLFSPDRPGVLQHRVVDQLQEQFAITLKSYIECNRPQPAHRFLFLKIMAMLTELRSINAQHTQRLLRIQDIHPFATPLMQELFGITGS
# Chain of UniProt P08659 (P08659 whole entry, looked up): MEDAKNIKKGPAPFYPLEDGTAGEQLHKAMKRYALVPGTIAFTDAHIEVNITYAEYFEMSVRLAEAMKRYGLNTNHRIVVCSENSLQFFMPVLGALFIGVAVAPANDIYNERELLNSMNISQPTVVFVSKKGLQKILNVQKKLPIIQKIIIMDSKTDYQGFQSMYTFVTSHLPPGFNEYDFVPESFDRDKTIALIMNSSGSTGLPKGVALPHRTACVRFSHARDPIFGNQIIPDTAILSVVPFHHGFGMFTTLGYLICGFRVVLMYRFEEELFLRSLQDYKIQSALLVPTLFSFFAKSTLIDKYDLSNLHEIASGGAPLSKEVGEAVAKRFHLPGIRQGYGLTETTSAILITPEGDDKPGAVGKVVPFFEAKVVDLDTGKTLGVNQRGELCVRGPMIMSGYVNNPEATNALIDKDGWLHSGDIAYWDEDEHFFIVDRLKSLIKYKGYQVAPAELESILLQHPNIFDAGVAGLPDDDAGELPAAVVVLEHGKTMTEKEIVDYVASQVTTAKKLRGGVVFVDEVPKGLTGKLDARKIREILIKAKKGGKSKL
# Chain of UniProt Q92731 (Q92731 whole entry, looked up): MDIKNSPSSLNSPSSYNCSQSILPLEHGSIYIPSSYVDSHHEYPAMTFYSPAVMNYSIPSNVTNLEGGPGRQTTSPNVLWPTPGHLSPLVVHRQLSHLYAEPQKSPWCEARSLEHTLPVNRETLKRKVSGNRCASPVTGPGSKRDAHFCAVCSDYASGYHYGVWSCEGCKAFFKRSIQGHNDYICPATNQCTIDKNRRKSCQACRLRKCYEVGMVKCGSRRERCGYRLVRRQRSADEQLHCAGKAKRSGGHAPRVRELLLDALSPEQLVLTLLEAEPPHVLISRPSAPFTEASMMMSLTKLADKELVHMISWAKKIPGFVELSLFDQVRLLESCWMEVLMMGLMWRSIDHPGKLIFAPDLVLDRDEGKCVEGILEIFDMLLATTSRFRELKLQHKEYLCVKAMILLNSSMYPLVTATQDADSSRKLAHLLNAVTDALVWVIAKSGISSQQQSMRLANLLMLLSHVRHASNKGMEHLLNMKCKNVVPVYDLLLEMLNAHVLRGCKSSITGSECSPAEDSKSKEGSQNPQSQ
# Chain of UniProt P16473 (P16473 whole entry, looked up): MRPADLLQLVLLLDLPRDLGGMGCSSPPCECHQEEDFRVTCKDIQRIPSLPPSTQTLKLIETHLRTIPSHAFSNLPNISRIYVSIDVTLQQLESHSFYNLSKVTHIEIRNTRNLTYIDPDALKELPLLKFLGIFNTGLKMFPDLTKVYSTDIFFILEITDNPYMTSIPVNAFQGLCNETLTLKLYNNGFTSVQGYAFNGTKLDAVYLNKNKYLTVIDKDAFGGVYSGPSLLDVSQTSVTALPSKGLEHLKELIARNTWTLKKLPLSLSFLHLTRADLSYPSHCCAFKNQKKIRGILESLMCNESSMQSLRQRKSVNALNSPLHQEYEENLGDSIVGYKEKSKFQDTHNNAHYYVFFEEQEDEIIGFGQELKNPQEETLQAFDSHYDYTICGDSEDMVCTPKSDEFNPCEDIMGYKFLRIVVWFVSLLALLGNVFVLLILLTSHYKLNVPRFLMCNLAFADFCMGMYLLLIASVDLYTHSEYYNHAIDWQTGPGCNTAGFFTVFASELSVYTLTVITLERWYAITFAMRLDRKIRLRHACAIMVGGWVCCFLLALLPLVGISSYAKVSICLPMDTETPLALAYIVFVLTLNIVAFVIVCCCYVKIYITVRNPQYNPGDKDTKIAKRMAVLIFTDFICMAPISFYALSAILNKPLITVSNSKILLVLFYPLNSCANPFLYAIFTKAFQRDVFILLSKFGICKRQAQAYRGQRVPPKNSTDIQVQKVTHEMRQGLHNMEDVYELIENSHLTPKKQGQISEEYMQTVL
# Chain of UniProt Q03181 (Q03181 whole entry, looked up): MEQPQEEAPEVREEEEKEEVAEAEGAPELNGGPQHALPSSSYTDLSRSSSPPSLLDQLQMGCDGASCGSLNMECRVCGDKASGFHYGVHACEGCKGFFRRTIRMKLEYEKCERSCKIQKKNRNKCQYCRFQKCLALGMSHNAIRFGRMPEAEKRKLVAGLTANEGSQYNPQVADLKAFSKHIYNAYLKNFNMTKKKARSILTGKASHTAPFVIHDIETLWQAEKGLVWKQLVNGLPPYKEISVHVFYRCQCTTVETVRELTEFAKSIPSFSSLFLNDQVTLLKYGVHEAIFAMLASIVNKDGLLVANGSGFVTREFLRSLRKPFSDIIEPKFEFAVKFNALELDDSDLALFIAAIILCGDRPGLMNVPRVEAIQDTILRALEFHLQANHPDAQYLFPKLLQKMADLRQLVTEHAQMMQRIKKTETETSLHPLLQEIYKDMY
# Chain of UniProt P03372 (P03372 whole entry, looked up): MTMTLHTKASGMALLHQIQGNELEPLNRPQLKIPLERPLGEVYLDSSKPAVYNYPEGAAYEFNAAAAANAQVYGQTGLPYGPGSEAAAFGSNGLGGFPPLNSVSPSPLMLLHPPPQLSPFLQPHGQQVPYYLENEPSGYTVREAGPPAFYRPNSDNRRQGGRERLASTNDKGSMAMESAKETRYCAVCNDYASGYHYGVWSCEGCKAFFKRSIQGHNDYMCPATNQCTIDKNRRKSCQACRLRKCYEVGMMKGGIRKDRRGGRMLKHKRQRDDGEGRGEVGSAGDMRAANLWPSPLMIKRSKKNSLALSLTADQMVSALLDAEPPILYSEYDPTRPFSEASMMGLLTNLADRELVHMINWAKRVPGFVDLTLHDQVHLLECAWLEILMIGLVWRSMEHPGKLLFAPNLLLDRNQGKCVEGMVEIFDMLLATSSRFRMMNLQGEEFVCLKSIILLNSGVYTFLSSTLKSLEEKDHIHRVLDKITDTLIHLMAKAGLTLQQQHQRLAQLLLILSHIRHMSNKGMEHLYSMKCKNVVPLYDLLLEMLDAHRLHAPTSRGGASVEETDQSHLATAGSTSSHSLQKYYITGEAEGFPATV
compound,measurement,setting,value
O=C(CCCN1CCC(n2c(=O)[nH]c3ccccc32)CC1)c1ccc(F)cc1,Potency,[1],"inconclusive: 29.8 µM [cytotoxic, partial curve, poor fit]"
same,Potency,[2],"inconclusive: 21.3 µM [cytotoxic, partial curve]"
same,Potency,[3],"inconclusive: 23.9 µM [cytotoxic, partial curve]"
same,Potency,[4],"inconclusive: 26.8 µM [cytotoxic, single point]"
same,Potency,[5],"inconclusive: 23.9 µM [cytotoxic, partial curve]"
same,Potency,[6],"inconclusive: 29.8 µM [rising, partial curve, poor fit]"
OP(O)c1ccccc1,Potency,[1],inactive
COc1ncc(F)c2nc(S(=O)(=O)Nc3c(F)cccc3F)nn12,Potency,[7],inactive
same,Potency,[8],inactive
same,Potency,[1],"inconclusive: 4.35 µM [cytotoxic, single point]"
CCC1CCC(=O)O1 (centres undefined),Potency,[9],"inconclusive: 2.48 µM [rising, full curve] [setting not given]"
same,Potency,[4],inactive
same,Potency,[10],inactive
Clc1ccc(-c2ccccc2)cc1,Potency,[11],"inconclusive: 71 µM [inhibitor, partial curve]"
CCCCOC(C)=O,Potency,[12],"inconclusive: 0.226 µM [cytotoxic, single point]"
same,Potency,[11],inactive
O=C(O)C1C(C(=O)O)C2(Cl)C(Cl)=C(Cl)C1(Cl)C2(Cl)Cl (centres undefined),Potency,[11],"inconclusive: 88.8 µM [inhibitor, single point]"
same,activation,[13],inconclusive: -36.4%
same,Potency,[2],inactive
same,Potency,[6],inactive
CC(O)CN(CC(C)O)CC(C)O (centres undefined),Potency,[9],"inconclusive: 438 nM [rising, full curve]"
same,Potency,[11],inactive
same,Potency,[13],"inconclusive: 19.4 µM [inhibitor, partial curve, poor fit]"
same,Potency,[14],inactive
same,Potency,[15],inactive
CCCCCl,Potency,[6],"inconclusive: 70.4 µM [rising, single point]"
Cc1nc(N(C)C)nc(OC(=O)N(C)C)c1C,Potency,[16],inactive
O=C(Cl)/C=C/C(=O)Cl,Potency,[7],inactive
same,Potency,[16],inactive
same,Potency,[12],inactive
same,Potency,[1],inactive
same,Potency,[11],"inconclusive: 80.9 µM [inhibitor, partial curve]"
same,Potency,[2],"inconclusive: 55.8 µM [rising, partial curve, poor fit]"
same,Potency,[17],"inconclusive: 69.6 µM [rising, single point]"
same,Potency,[14],"inconclusive: 43.9 µM [activator, partial curve]"
c1cc[n+]2c(c1)-c1cccc[n+]1CC2,Potency,[18],inconclusive: 29.8 µM [inhibitor]
same,Potency,[7],"inconclusive: 33.5 µM [falling, single point]"
same,Potency,[17],"inconclusive: 33.5 µM [cytotoxic, single point]"
N#Cc1c(Cl)cccc1Cl,Potency,[7],inactive
same,Potency,[8],"inconclusive: 11 µM [rising, full curve]"
same,Potency,[1],inactive
same,Potency,[3],inactive
same,Potency,[14],inactive
S=C=S,Potency,[11],"inconclusive: 17.6 µM [inhibitor, full curve]"
same,Potency,[2],inactive
same,Potency,[3],inactive
same,Potency,[5],inactive
OCCSCSCCO,Potency,[11],inactive
same,Potency,[2],inactive
CNC(C)(C)Cc1ccccc1,Potency,[8],inactive
same,Potency,[11],inactive
COc1ccc(CN2CCNCC2)c(OC)c1OC,Potency,[7],inactive
same,Potency,[12],inactive
same,Potency,[4],inactive
same,Potency,[5],inactive
same,Potency,[17],inactive
CC(C)(N)Cc1ccc(Cl)cc1,Potency,[19],"inconclusive: 2.11 µM [cytotoxic, partial curve, poor fit]"
same,Potency,[1],"inconclusive: 33.5 µM [cytotoxic, single point]"
same,Potency,[20],"inconclusive: 0.196 µM [falling, single point]"
same,Potency,[6],"inconclusive: 16.8 µM [cytotoxic, partial curve]"
CCC1C(=O)OCC1Cc1cncn1C (centres undefined),Potency,[1],inactive
CCCCCCCCSC(=O)Oc1cc(Cl)nnc1-c1ccccc1,Potency,[15],"inconclusive: 27.3 µM [activator, single point]"
CCCCn1cc[n+](C)c1.[Cl][Fe-]([Cl])([Cl])[Cl],Potency,[9],"inconclusive: 218 nM [rising, partial curve, poor fit] [setting not given]"
same,Potency,[17],"inconclusive: 43.1 µM [rising, partial curve, poor fit]"
COc1cc(OC)nc(NC(=O)NS(=O)(=O)c2ncccc2C(=O)N(C)C)n1,Potency,[1],inactive
same,Potency,[20],inactive
Clc1nc(Cl)nc(Nc2ccccc2Cl)n1,Potency,[9],"inconclusive: 4360 nM [cytotoxic, full curve, poor fit]"
same,Potency,[19],inactive
same,Potency,[16],"inconclusive: 0.0776 µM [rising, full curve, poor fit]"
same,Potency,[12],inactive
same,Potency,[11],"inconclusive: 89.4 µM [inhibitor, single point]"
same,Potency,[15],"inconclusive: 9.68 µM [activator, partial curve]"
O=NN(CCO)CCO,Potency,[11],"inconclusive: 69.9 µM [inhibitor, partial curve]"
same,Potency,[13],inactive

# Reference: PubChem BioAssay (Tox21)
